The supplement of paper PMC3724861
Some of the results follow.

test system: T1, Caupolican (Caup) homeodomain DNA-binding domain; assay: PBM E-score (8-mer, recovered from the published 9-mer minima) (E-score (dimensionless, -0.5 to 0.5)); Drosophila protein; higher = stronger relative binding preference, active = 0.31 or more
T1 sequence: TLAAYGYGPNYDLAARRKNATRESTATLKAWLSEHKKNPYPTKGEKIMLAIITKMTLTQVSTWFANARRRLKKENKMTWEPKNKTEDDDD
Procedure, shortened: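 An enrichment score, with higher meaning stronger, expresses relative binding preference for each short DNA word. The protein used was Caup's homeodomain DNA-binding domain (residues 214-303), produced by in vitro transcription and translation and tested at 100 nM on custom-designed protein binding microarrays. The 8-mer values were recovered from published 9-mer scores, each equal to the lower of its two constituent 8-mer scores.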

Row | Sequence | PBM E-score
1 | CTTGCGTA | inactive: 0.0318
2 | AAACACAA | inactive: 0.27
3 | AAGTACTG | inactive: 0.109
4 | GTGCCCGA | inactive: -0.111
5 | ACACGCCG | inactive: 0.0819
6 | AGCAAGAC | inactive: 0.0516
7 | ACTTGTCA | active: ≥ 0.378
8 | CACCGACA | inactive: 0.117
9 | AGAGTGAG | inactive: 0.0169
10 | AACGGGTA | inactive: 0.0722
11 | CGGAGGAC | inactive: -0.15
12 | AAAAGTAG | inactive: 0.0734
13 | ATTTTAGG | inactive: 0.0422
14 | AAACGATA | inactive: 0.112
15 | CGTCCAAA | inactive: -0.0822
16 | AGAATCTA | inactive: 0.0225
17 | AACTTGTG | inactive: 0.147
18 | ATGGGAAG | inactive: -0.07
19 | CACACCTC | inactive: -0.0165
20 | CTGGACAG | inactive: -0.0238
21 | CCAATAGC | inactive: -0.0344
22 | ATTAATTG | inactive: 0.161
23 | ACGTTCCC | inactive: -0.168
24 | AATGAGGA | inactive: -0.0723

Row | Sequence | PBM E-score
25 | ACAGCATC | inactive: 0.14
26 | TACCCTGA | inactive: 0.0133
27 | ATATGTTA | active: 0.338
28 | CTGACGAC | inactive: 0.0373
29 | ATAGCGTA | inactive: 0.00056
30 | CTTGCAAG | inactive: -0.0875
31 | TGGCGACA | inactive: 0.176
32 | AATTAACA | active: 0.326
33 | TAAAACTA | inactive: 0.171
34 | ATCCGGGG | inactive: -0.103
35 | AGCCTGGG | inactive: -0.123
36 | CAACCTAG | inactive: -0.0215
37 | AATGCTCC | inactive: -0.181
38 | CAGTCCCA | inactive: -0.0161
39 | ATAATGGC | inactive: -0.0829
40 | GTCGAAAA | inactive: 0.0738
41 | AGAAGTTC | inactive: -0.0279
42 | CTGCTTCC | inactive: -0.154
43 | CTATACGC | inactive: -0.0266
44 | CGATCTAA | inactive: 0.111
45 | GGGGGACC | inactive: -0.38
46 | AACCCAGT | inactive: 0.0154
47 | ACAACTCC | inactive: 0.0167
48 | GCGACTAC | inactive: 0.0532

Row | Sequence | PBM E-score
49 | ACTGGCTG | inactive: -0.0429
50 | CCATGCAA | inactive: 0.0685
51 | AAAGCATT | inactive: 0.0591
52 | CACTGCCA | inactive: -0.0653
53 | AAGGTGTA | inactive: 0.155
54 | CAATGGTC | inactive: 0.0441
55 | CAAATCCG | inactive: 0.00194
56 | CAGCAGGA | inactive: -0.0173
57 | AACCGGGA | inactive: -0.0571
58 | GAACACAC | inactive: 0.217
59 | CACAACAG | inactive: 0.0901
60 | CTTGGTCC | inactive: -0.0939
61 | AGAATACG | inactive: 0.0139
62 | AAGGGAAG | ≥ 0.0642
63 | TCAGTGCA | inactive: -0.0104
64 | AAAGGTTC | inactive: -0.0318
65 | GCGCCGGA | inactive: -0.268
66 | CGGCGATC | inactive: -0.153
67 | CCGGCAGA | inactive: -0.25
68 | TGAAGGCA | inactive: -0.0569
69 | CATGCATA | inactive: 0.14
70 | TCGGTGCA | inactive: -0.0471
71 | TAGTGGAA | inactive: -0.102
72 | CTCACATA | inactive: 0.149

Row | Sequence | PBM E-score
73 | CGGCCCCA | inactive: -0.314
74 | ATCGAGCC | inactive: -0.0462
75 | GCTTAACA | inactive: 0.251
76 | ATTTGGAA | inactive: 0.0173
77 | CTAGGATC | inactive: -0.0155
78 | ATAGGGTA | inactive: 0.0384
79 | GAGTCCTA | inactive: -0.0609
80 | CTTGCGAC | inactive: -0.178
81 | GCAGAGCA | inactive: -0.0161
82 | AAGGTCAA | inactive: 0.00315
83 | AACTCCAC | inactive: 0.0187
84 | AGAGACAG | inactive: -0.00849
85 | AGATTAGC | inactive: -0.0125
86 | GTGCAGAA | inactive: -0.0572
87 | ACGCTTAT | inactive: 0.0137
88 | GACCAGGC | inactive: -0.176
89 | GTTGTCCA | active: ≥ 0.336
90 | GTTCGTAA | inactive: 0.0956
91 | AAATCCAG | inactive: 0.0354
92 | AAGTACTC | inactive: 0.0162
93 | CAATAGTA | inactive: 0.0364
94 | AGAATGAT | inactive: 0.1
95 | CTTTAGTA | inactive: 0.0758
96 | AGCTGTGA | inactive: 0.0157

Row | Sequence | PBM E-score
97 | TCCGCCCA | inactive: -0.142
98 | GGTGGCTA | inactive: -0.133
99 | AAATCCCA | inactive: -0.00704
100 | CCAACCGC | inactive: -0.144
101 | GAATGGAC | inactive: 0.0265
102 | CCGTATTA | inactive: 0.0301
103 | AAATATGC | inactive: 0.00511
104 | TAGGTATA | inactive: 0.0723
105 | TCCCTTAA | inactive: -0.00465
106 | GTTGCAGA | inactive: 0.0159
107 | AATTTAGA | inactive: 0.0312
108 | GATTATTA | inactive: 0.16
109 | TAATACAA | inactive: 0.278
110 | CCGGGTCC | inactive: -0.185
111 | AAGATTAT | inactive: 0.0707
112 | GACGCATC | inactive: -0.0449
113 | GTCACTTA | inactive: 0.105
114 | TTAATTAA | inactive: 0.128
115 | ATGGGCCG | ≥ -0.14
116 | ACGACTCA | inactive: 0.0184
117 | CAATCGCA | inactive: 0.0691
118 | CGCCCACG | inactive: -0.219
119 | CCGCTGTA | inactive: 0.089
120 | GGGAAGTA | inactive: 0.031

Row | Sequence | PBM E-score
121 | GGTCCTAA | inactive: -0.0162
122 | TCCCCGAA | inactive: -0.216
123 | CATAGGCA | inactive: -0.111
124 | CGCCTAGA | inactive: -0.178
125 | ATGGTATC | inactive: 0.109
126 | GTTATTGA | inactive: 0.154
127 | CAATGGGA | inactive: -0.0502
128 | ACGATTCC | inactive: 0.0592
129 | ATGGTGTC | inactive: 0.142
130 | AGTATCTA | inactive: 0.166
131 | AGTGTGCG | inactive: -0.0759
132 | CCTTAGGC | inactive: -0.129
133 | GGATCTGA | inactive: 0.0275
134 | ACCCTGAC | inactive: -0.0939
135 | ATTCGTCA | inactive: 0.0852
136 | GCCCCAAC | inactive: -0.0515
137 | AGGTCATC | inactive: -0.0765
138 | AATGTTCC | inactive: 0.2
139 | CCCGTCGG | inactive: -0.289
140 | CAATTGCG | inactive: -0.018
141 | GTTCACTA | inactive: 0.0838
